Results published in PubChem BioAssay (Tox21).
“And” between values parts separate entries of the source, which are not always exact repeats. Equal values may be shown once. The inconclusive results got no clear call from the source; some entries with a clear call stand among them for comparison. Where the call is inconclusive, the potency comes from a doubtful curve fit. The source made the active and inactive calls. The call rests on the fitted dose curve; in most records, active means well fitted curve in the direction sought with a large enough effect in the repeat runs; inconclusive means weak or mixed curves; inactive means no such curve, though single readings can be large; an effect the other way counts as inactive or inconclusive.

Tested on: not listed separately
Assay: qHTS assay to identify small molecule antagonists of the estrogen related receptor (ERR) signaling pathway from Tox21 library - cell viability counter screen (AID 1224834); further: nearly all actives have a fitted effect of over 30% in size
Conditions: ERR reporter cells viability, CellTiter-Fluor, 17.5 h; series mostly up to 92.4 µM; viability change, negative = cytotoxic: at the top concentration
In short: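 CellTiter-Fluor fluorescence, read after 30 min at 37 C, measures viability of ERR cells. Cells plated at 2,000/well and incubated 6 h before pin-tool compound addition, then exposed 17.5 hours at 37 C.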
On the % scale 0 is the no-effect control and ±100 the full control effect; potency means the concentration at half of the fitted maximal effect; tags describe the fitted curve by direction and shape.

SMILES	Potency	viability change, negative = cytotoxic
CCN(CC)CCCC(C)Nc1c2ccc(Cl)cc2nc2ccc(OC)cc12 (stereo not drawn)	active: 5.96 µM	
CC[N+](CC)(CC)CCOc1ccc(/C=C/c2ccccc2)cc1	inconclusive: 10.6 µM [cytotoxic, partial curve]	
CN(C)CCCN1c2ccccc2CCc2ccccc21	inconclusive: 48.6 µM [cytotoxic, partial curve] and inconclusive: 37.6 µM [cytotoxic, single point]	
C1COC(NC(C2CC2)C2CC2)=N1		inactive: 1.38% [at 42.5 µM]
Cc1ccc(N(CC2=NCCN2)c2cccc(O)c2)cc1	inconclusive: 33.5 µM [cytotoxic, single point]	
CS(=O)(=O)Nc1ccc([N+](=O)[O-])cc1Oc1ccccc1	active: 30.6 µM and inconclusive: 29.8 µM [cytotoxic, single point]	
CC(C)C(=O)Nc1ccc([N+](=O)[O-])c(C(F)(F)F)c1	inconclusive: 62.9 µM [cytotoxic, partial curve] and inconclusive: 54.5 µM [cytotoxic, partial curve] and inconclusive: 37.6 µM [cytotoxic, partial curve]	
COC(=O)Nc1nc2ccc(C(=O)c3cccs3)cc2[nH]1	inconclusive: 0.0944 µM [cytotoxic, full curve]	
OCCN1CCN(CCCN2c3ccccc3C=Cc3ccccc32)CC1	inconclusive: 23.7 µM [cytotoxic, partial curve]	
COc1ccc([C@@H]2Sc3ccccc3N(CCN(C)C)C(=O)[C@@H]2OC(C)=O)cc1	inconclusive: 26.6 µM [cytotoxic]	

Molecular target: Luciferin 4-monooxygenase (Photinus pyralis) (UniProt P08659)
Assay: qHTS assay to identify small molecule inhibitors of firefly luciferase (AID 1224835); further: nearly all actives have a fitted effect of over 25% in size
Conditions: purified P. pyralis luciferase, luminescence inhibition; series mostly up to 115 µM; activity change, negative = inhibition: at the top concentration
In short: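 Inhibition of purified Photinus luciferase is measured by luminescence. Substrate levels (D-luciferin, ATP) sit at their KM values. Each compound is tested in a concentration series.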

Chain of UniProt P08659 (P08659 whole entry, looked up): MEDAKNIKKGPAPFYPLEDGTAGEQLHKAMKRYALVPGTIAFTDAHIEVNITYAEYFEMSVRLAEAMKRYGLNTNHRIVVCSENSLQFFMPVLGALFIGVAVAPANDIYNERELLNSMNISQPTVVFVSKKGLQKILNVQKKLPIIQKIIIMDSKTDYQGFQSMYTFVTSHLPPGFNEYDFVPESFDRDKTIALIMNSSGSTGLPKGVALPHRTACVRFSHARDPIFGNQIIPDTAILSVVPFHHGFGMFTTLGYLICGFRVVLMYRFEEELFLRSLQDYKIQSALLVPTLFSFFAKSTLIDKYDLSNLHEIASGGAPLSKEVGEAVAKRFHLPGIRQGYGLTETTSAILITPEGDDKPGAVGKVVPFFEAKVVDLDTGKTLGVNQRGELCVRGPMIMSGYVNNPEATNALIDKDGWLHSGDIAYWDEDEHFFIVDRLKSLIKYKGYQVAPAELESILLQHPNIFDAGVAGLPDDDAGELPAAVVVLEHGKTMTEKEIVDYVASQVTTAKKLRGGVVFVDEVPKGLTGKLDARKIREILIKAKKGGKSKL

SMILES	Potency	activity change, negative = inhibition
C=C(C#N)C(=O)OCC	inconclusive: 89.4 µM [inhibitor]	
CN1C(C(=O)Nc2ccccn2)=C(O)c2sccc2S1(=O)=O	inconclusive: 34.7 µM [inhibitor, partial curve]	
Brc1c2ccccc2cc2ccccc12	inconclusive: 35.9 µM [inhibitor, full curve]	
CCCc1c(OCCCOc2ccc(OCC(=O)O)cc2)ccc(C(C)=O)c1O	inconclusive: 89.4 µM [inhibitor, single point]	
c1csc(SSc2cccs2)c1	active: 22.4 µM	
CCCCCCCCC1CCC(=O)O1 (stereo not drawn)		inactive: -1.94%
CCCCCCCCCCCSCC(=O)O	inconclusive: 89.4 µM [inhibitor, single point]	
CC1=CC[C@@H]2C[C@H]1C2(C)C	inconclusive: 12.6 µM [inhibitor, partial curve, poor fit]	
Sc1nc2ccccc2s1	inconclusive: 39.9 µM [inhibitor, partial curve]	
Oc1ccc2c(c1)-c1ccccc1C2	inconclusive: 63.3 µM [inhibitor, partial curve]	
NC(=O)N(O)[C@@H]1C=C[C@H](Oc2cccc(Oc3ccc(F)cc3)c2)C1	active: 31.7 µM	
c1cc(N(CC2CO2)CC2CO2)ccc1Cc1ccc(N(CC2CO2)CC2CO2)cc1 (stereo not drawn)	inconclusive: 89.4 µM [inhibitor, single point]	
O=C(Oc1ccccc1)c1ccc(O)cc1	active: 35.8 µM and active: 35.6 µM	
